Results published in patent US20180334496A1 (KODIAK SCIENCES, published 2018).

Target: T1, complement Factor B (UniProt P00751 26-764)
T1 construct: also called CFB; FB
T1 sequence (looked up): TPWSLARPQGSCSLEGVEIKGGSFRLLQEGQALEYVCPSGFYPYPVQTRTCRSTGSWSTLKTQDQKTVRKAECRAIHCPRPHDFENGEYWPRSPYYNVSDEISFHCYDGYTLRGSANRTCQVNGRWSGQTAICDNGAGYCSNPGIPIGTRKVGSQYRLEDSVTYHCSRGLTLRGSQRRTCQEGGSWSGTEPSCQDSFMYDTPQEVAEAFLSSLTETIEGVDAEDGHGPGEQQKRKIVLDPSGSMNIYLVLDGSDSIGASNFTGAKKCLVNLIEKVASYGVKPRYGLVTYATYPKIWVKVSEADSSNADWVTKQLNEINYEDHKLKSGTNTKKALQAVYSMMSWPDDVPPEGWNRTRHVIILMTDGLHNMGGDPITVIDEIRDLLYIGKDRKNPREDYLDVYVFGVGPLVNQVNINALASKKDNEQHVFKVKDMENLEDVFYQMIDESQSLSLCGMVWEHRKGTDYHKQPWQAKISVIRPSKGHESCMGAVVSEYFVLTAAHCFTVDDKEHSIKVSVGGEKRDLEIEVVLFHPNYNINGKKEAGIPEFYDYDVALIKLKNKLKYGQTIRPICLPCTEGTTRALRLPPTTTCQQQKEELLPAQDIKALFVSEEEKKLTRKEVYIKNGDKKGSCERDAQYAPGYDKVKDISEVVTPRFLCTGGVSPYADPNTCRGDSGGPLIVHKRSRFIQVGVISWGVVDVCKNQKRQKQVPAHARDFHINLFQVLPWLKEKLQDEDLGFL
Assay: SPR complex assembly assay

binding result: binds
B1: recombinant human CFDS183A (enzyme)
chain: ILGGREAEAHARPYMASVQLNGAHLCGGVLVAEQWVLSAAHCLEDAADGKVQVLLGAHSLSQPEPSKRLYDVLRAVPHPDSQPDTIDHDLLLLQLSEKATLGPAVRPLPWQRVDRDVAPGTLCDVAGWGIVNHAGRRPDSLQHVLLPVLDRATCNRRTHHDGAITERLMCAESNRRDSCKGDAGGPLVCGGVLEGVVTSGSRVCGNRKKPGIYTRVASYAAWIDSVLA
notes: also called catalytically dead mutant of CFD
